# Results reported in the supplement of paper PMC11417369.
# ± gives the standard deviation of the averaged measurements. Some of the results follow.
# Test system: PfAP2-I AP2 domain 3 (GST-tagged)
# Assay: gcPBM binding intensity (ln(normalized median fluorescence intensity)); higher = stronger DNA binding
# Method in brief: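 Binding intensity values are the highest Masliner-normalised natural-log median intensity among replicate spots of either probe orientation. The binding step lasted 1 h in 1× PBS with 1% milk, 0.2 mg/ml BSA, 0.5% salmon testes DNA and 0.03% Triton X-100, using GST-tagged P. falciparum DNA-binding domains expressed in E. coli on an Agilent 4 × 180k array of primer-extended double-stranded 36-bp intergenic genomic probes plus negative controls. Alexa488 anti-GST antibody and a 488 nm scan detected bound protein.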
row,Sequence,gcPBM binding intensity (ln)
1,AGGCCTTTTAGTATTTCACACACGTAAATGTGTATA [CACACA_site8284],8.03 ± 0.74
2,GTTTATTAGGAATTATGTACACAGTTTTATAAAGAA [XGTACX_site2994],8.29 ± 0.38
3,AATATAATATATTGCACACAAAAAGTGAATTATTCT [CACACA_site1684],10.2 ± 0.4
4,TAAAAAAGAACAGAAACACACAAATAAAATAAAATT [CACACA_site1758],7.99 ± 0.7
5,CAAAATTGAAGGAACACACATACATATATATATATG [CACACA_site179],7.52 ± 0.57
6,ATTTTAAATATTTGTGGTACCCCTTTTTTGTAACAA [XGTACX_site5590],8.07 ± 0.61
7,CTTTGTGGTATAGATACACACTATATTAATATGAAC [CACACA_site7081],7.89 ± 0.52
8,AAATAAAAAGGGTGCACACAAAAATATATATATATA [CACACA_site1728],11 ± 0.84
9,AAAACTATAATAAAAGGTACACATTTATTTTTTTCT [XGTACX_site730],7.74 ± 0.3
10,TTTTTTTTTTTTTTTACACACACAAAATATTATATG [CACACA_site2471],8.19 ± 0.6
11,TATTATTTACCTTGCTAGTTCGTTCCAAATTTTATG [XGTACX_negctrl_site197],8.06 ± 0.71
12,ATGTTTGATGCTACACGTACACACCTTGCAAATATT [XGTACX_site1644],8.61 ± 0.53
13,TATATTATTCATTAAGCACACATTATTTTTATAATA [CACACA_site6056],8.645 ± 0.007
14,AAAACAAATTTTAATGAGAATATGAAAAAAAAATAT [XGTACX_negctrl_site268],7.98 ± 0.58
15,CACATTATGTATCATACACACAAATAAATATAGAAT [CACACA_site609],7.91 ± 0.46
16,TATTCTAATATATGCATACACACAAATGTGAATATA [CACACA_site2143],7.79 ± 0.59
17,TTTATATGTATTAAGTGTACACATATAATGTGTTTT [XGTACX_site4890],7.69 ± 0.37
18,ATATTATGTCTACATAAACACACATATATATAAAAA [CACACA_site7976],7.83 ± 0.46
19,AATAGTTATAAATATAAATATATATATATATATATA [CACACA_negctrl_site414],9.29 ± 0.58
20,AATAAATATTCATTTTGTACATATTTTTCGTATATG [XGTACX_site6104],7.55 ± 0.59
21,TTACCATAAGTATGTGGTACACTTTAAATGAAGATA [XGTACX_site6972],7.8 ± 0.38
22,TATATATATAAATACACACACACCCTAAAAATATAT [CACACA_site4970],8.45 ± 0.57

row,Sequence,gcPBM binding intensity (ln)
1,TTAACATCAAAATATGCACACAAACAATTAGCGGTA [CACACA_site8801],8.49 ± 0.52
2,TCATATTTTACATATGCATGTTAATAATACAAACAT [TGCATGCA_site994],7.58 ± 0.57
3,TTTTTTTCGTATATTACACACTATAAATAGAAATTA [CACACA_site6278],8.01 ± 0.42
4,GTATAACAACTGATAAAAGAAAAAAAATTTATTATT [CACACA_negctrl_site377],7.5 ± 0.64
5,ATAATATTTTTAAACTGTACTTTTATAAACACTTAT [XGTACX_site2625],7.98 ± 0.45
6,ATTTATTTATGTATTTGTACGTATATATTTATGCAT [XGTACX_site5218],7.99 ± 0.23
7,ATTTATTTGAAGAATTGTACTAAATTATATAGCGGT [XGTACX_site4998],7.94 ± 0.49
8,TATAAAAAAATATATATATATATTATATGTGTAGAA [TGCATGCA_negctrl_site391],7.93 ± 0.59
9,ATTTTAATTTGTTATACACACACAAAAAAAATTATA [CACACA_site9306],7.88 ± 0.35
10,TATATCAAAATACATACACACATTTGTATTTACATT [CACACA_site5485],7.62 ± 0.56
11,TTTTTTTTTAATCATGCACACTGTTAAAAGAATAAA [CACACA_site4817],8.73 ± 0.33
12,TATATTATTTTTAGAAGTACTTATTGTTATAATTCT [XGTACX_site1015],7.59 ± 0.37
13,AGAAAAGATAAAAATAGTACATATATATTTACTTAT [XGTACX_site7820],7.54 ± 0.51
14,CTCCTTTCAAAAAAATGTACATGTTTACATTTCAAG [XGTACX_site7342],7.75 ± 0.38
15,ATAAATATTTATAACAGTACATATTTACTATCCTAA [XGTACX_site4497],7.51 ± 0.57
16,TTATATATAATATGACGTACAATTATACATTTTATG [XGTACX_site7598],7.67 ± 0.19
17,TATACACATATTTTTACACACATATTTTTTCATATA [CACACA_site7244],7.89 ± 0.49
18,ACGATTAAATCGATAATACACACTAAATGTAAAACA [CACACA_site119],7.7 ± 0.52
19,TTTTTTTTTTCAAATACATGCATTTATGTATAATAC [TGCATGCA_site722],7.87 ± 0.73
20,TAGGAAAAAAATACAGTGCAATTTTTATATAAATAA [GTGCAC_site9979],8.62 ± 0.5
21,TACATATTTTATAACTGTACTTTTTTATTATCCAAT [XGTACX_site5396],7.91 ± 0.45
22,TTTATATAAATCAAATGTACATATTCCAAATATATA [XGTACX_site8515],7.63 ± 0.19
